# In PubChem BioAssay AID624255 (Broad Institute, 2012):
# The whole screen tested about 77,000 compounds, of which about 4,600 (6%) were called active. The inconclusive results got no clear call from the source; some entries with a clear call stand among them for comparison.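 Rule for the calls: active = mean inhibition above about 93%, with at least 55% of replicates each passing it (limit read from the data, passing the limit was not always enough); inconclusive = only one of those two conditions holds; inactive = neither condition holds.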
# Assay: T. cruzi intracellular proliferation inhibitors, primary screen, cell-based, beta-gal Tulahuen parasites, NIH3T3 host, luminescence (AID 624255)
# Details: T. cruzi beta-gal in NIH3T3, GalScreen luminescence, 90 h; at 8.34 µM; hits give high values
row,Structure (SMILES),inhibition
1,CS(=O)(=O)N1CCCCN2[C@@H](CO)[C@H](c3ccc(C4=CCCC4)cc3)[C@@H]2C1,inconclusive: 96.8%
2,COc1cccc(S(=O)(=O)N(C)C[C@H]2Oc3ncc(C#CCC(C)C)cc3C(=O)N([C@@H](C)CO)C[C@@H]2C)c1,inconclusive: 119%
3,N#C[C@@H]1[C@@H](c2ccc(-c3ccncc3)cc2)[C@@H](CO)N1C(=O)Cc1ccccc1,inconclusive: 95.1%
4,C[C@@H]1CN([C@@H](C)CO)C(=O)c2cc(NS(=O)(=O)c3ccc(Cl)cc3)ccc2O[C@@H](C)CCCCO[C@H]1CN(C)Cc1ccncc1,inconclusive: 105%
5,COc1ccccc1-c1cnc2c(c1)C(=O)N([C@H](C)CO)C[C@H](C)[C@H](CN(C)C(C)=O)O2,inconclusive: 97.9%
6,C[C@@H]1CCCCO[C@H](CN(C)S(=O)(=O)c2cccs2)[C@H](C)CN([C@H](C)CO)C(=O)c2cc(NC(=O)Nc3ccc(F)cc3)ccc2O1,inconclusive: 95%
7,C[C@H](CO)N1C[C@H](C)[C@@H](CN(C)Cc2ccncc2)Oc2ccc(NS(=O)(=O)c3cccs3)cc2CC1=O,inactive: 1.46%
8,COc1ccccc1-c1ccc2c(c1)[C@H]1[C@H](CCN1S(=O)(=O)c1ccccc1F)[C@H](CO)N2,inactive: 80.2%
9,O=C(CCN1CCCCC1)N[C@@H]1CC[C@@H](CCNS(=O)(=O)c2ccc(Cl)cc2)O[C@H]1CO,inactive: 24.9%
10,CCC(=O)N[C@H]1CC[C@H](CC(=O)NCc2ccc(OC)cc2)O[C@H]1CO,inactive: -8.5%
11,C[C@H](CO)N1C[C@H](C)[C@@H](CN(C)Cc2ccc(Oc3ccccc3)cc2)Oc2ccc(NC(=O)Cc3ccccc3)cc2C1=O,inconclusive: 92%
12,C[C@@H]1CN([C@@H](C)CO)C(=O)c2cccc(NC(=O)c3ccc(-c4nccs4)cc3)c2O[C@@H]1CN(C)C(=O)Nc1ccc(C(F)(F)F)cc1,inconclusive: 121%
13,OC[C@H]1[C@H](c2ccc(/C=C/c3ccccc3)cc2)[C@@H]2CN(Cc3ccncc3)CCCCN12,inconclusive: 114%
14,CCCC#Cc1cnc2c(c1)C(=O)N([C@@H](C)CO)C[C@@H](C)[C@H](CN(C)C(=O)Nc1ccccc1F)O2,inconclusive: 88.7%
15,C/C=C/c1ccc([C@H]2[C@@H](CO)N3CCCCN(C(=O)Nc4ccccc4F)C[C@H]23)cc1,active: 97.3%
16,CS(=O)(=O)N1CCCCN2[C@@H](CO)[C@H](c3ccc(C#Cc4ccccn4)cc3)[C@@H]2C1,inconclusive: 101%
17,C[C@H](CO)N1C[C@H](C)[C@@H](CN(C)Cc2cccnc2)OCc2ccccc2-c2c(n(C)c3ccccc23)C1=O,inconclusive: 97.8%
18,Cc1ccc(S(=O)(=O)N(C)C[C@H]2OCCCC[C@H](C)Oc3ccc(NC(=O)NC4CCCCC4)cc3C(=O)N([C@H](C)CO)C[C@H]2C)cc1,inactive: 85.4%
19,C[C@@H]1CN([C@H](C)CO)S(=O)(=O)c2ccc(C#CCN(C)C)cc2O[C@H]1CN(C)Cc1ccc2c(c1)OCO2,active: 105%

row,Structure (SMILES),inhibition
1,C[C@@H]1CCCCO[C@H](CN(C)S(=O)(=O)c2ccc(F)cc2)[C@H](C)CN([C@H](C)CO)C(=O)c2cc(NC(=O)C3CCCCC3)ccc2O1,inconclusive: 97.3%
2,O=C(C[C@H]1C[C@@H]2c3cc(NC(=O)NC4CCCC4)ccc3O[C@@H]2[C@@H](CO)O1)NCc1ccc(Cl)cc1,inconclusive: 98%
3,C[C@H](CO)N1C[C@H](C)[C@H](CN(C)S(=O)(=O)c2ccc(F)cc2)OCCCC[C@H](C)Oc2ccc(N(C)C)cc2C1=O,inconclusive: 96.2%
4,C[C@H](CO)N1C[C@H](C)[C@@H](CN(C)S(=O)(=O)c2cn(C)cn2)Oc2cc(C#Cc3ccc(F)cc3)ccc2S1(=O)=O,active: 107%
5,C[C@H](CO)N1C[C@H](C)[C@H](CN(C)Cc2ccc(C(F)(F)F)cc2)Oc2ccc(NC(=O)CCN3CCOCC3)cc2CC1=O,inconclusive: 95.8%
6,COC(=O)[C@@H]1[C@@H](CO)[C@@H]2Cn3c(ccc(-c4ccc(F)cc4)c3=O)[C@@H]2N1C(=O)C1CCC1,active: 114%
7,Cc1noc(C)c1NC(=O)Nc1ccc2c(c1)C(=O)N([C@H](C)CO)C[C@H](C)[C@H](CN(C)S(=O)(=O)c1ccc(Cl)cc1)OCCCC[C@H](C)O2,inconclusive: 95.6%
8,Cc1ccccc1S(=O)(=O)N(C)C[C@@H]1OCc2cnnn2CCCC(=O)N([C@@H](C)CO)C[C@@H]1C,inconclusive: 106%
9,Cc1noc(C)c1NC(=O)N[C@H]1CC[C@H](CC(=O)N2CCN(C)CC2)O[C@H]1CO,inactive: -11.8%
10,C[C@@H]1CCCCO[C@@H](CN(C)Cc2ccc(Cl)c(Cl)c2)[C@H](C)CN([C@H](C)CO)C(=O)c2cc(NC(=O)Nc3ccc(F)cc3)ccc2O1,inconclusive: 95.6%
11,C[C@@H]1CN([C@@H](C)CO)C(=O)c2cc(NS(C)(=O)=O)ccc2O[C@@H]1CN(C)S(=O)(=O)c1ccc(F)cc1,inactive: -141%
12,CCNC(=O)C[C@H]1CC[C@H]2[C@H](COc3ccc(NC(=O)Nc4ccccc4C)cc3C(=O)N2C)O1,inactive: 27%
13,CC(C)CC#Cc1ccc2c(c1)O[C@@H](CN(C)Cc1ccccc1F)[C@H](C)CN([C@H](C)CO)S2(=O)=O,inconclusive: 122%
14,Cc1cccc(-c2ccc([C@H]3[C@@H](CO)N4CCCCN(Cc5cncnc5)C[C@H]34)cc2)c1,active: 104%
15,Cc1ccc(S(=O)(=O)N(C)C[C@H]2OCCCC[C@@H](C)Oc3ccc(NS(=O)(=O)c4ccc(Cl)cc4)cc3C(=O)N([C@@H](C)CO)C[C@H]2C)cc1,inconclusive: 90.9%
16,C[C@@H]1CN([C@@H](C)CO)S(=O)(=O)c2ccc(-c3ccccc3)cc2O[C@H]1CN(C)C(=O)C1CCCCC1,inconclusive: 96.6%
17,Cc1ccc(S(=O)(=O)Nc2cccc3c2O[C@@H](CN(C)C(=O)Nc2cccc4ccccc24)[C@@H](C)CN([C@@H](C)CO)C3=O)cc1,inactive: 9.65%
18,COc1ccccc1NC(=O)N1CCCCN2[C@H](CO)[C@H](c3ccc(-c4cccc(C)c4)cc3)[C@@H]2C1,inconclusive: 95.1%
19,C[C@H](CO)N1C[C@H](C)[C@H](CN(C)C(=O)c2ccncc2)Oc2cc(C3=CCCC3)ccc2S1(=O)=O,inconclusive: 112%

row,Structure (SMILES),inhibition
1,CC(C)CC#Cc1cnc2c(c1)C(=O)N([C@@H](C)CO)C[C@@H](C)[C@H](CN(C)C(=O)C1CCCCC1)O2,inconclusive: 122%
2,O=S(=O)(c1cccs1)N1CCCCN2[C@H](CO)[C@H](c3ccc(-c4ccccc4)cc3)[C@@H]2C1,inconclusive: 103%
3,COc1ccccc1C(=O)Nc1ccc2c(c1)C(=O)N(C)[C@H]1CC[C@H](CC(=O)Nc3cccc(C(C)C)c3)O[C@@H]1CO2,inconclusive: 97%
4,CCCC#Cc1ccc2c(c1)O[C@H](CN(C)C(=O)C1CCC1)[C@H](C)CN([C@@H](C)CO)S2(=O)=O,active: 98.3%
5,C[C@H](CO)N1C[C@H](C)[C@@H](CN(C)C(=O)C2CCOCC2)Oc2cc(C3=CCCC3)ccc2S1(=O)=O,inconclusive: 95.3%
6,COc1ccc(NC(=O)Nc2ccc3c(c2)C(=O)N([C@@H](C)CO)C[C@H](C)[C@H](CN(C)C(=O)NC2CCCCC2)OCCCC[C@H](C)O3)cc1,inconclusive: 106%
7,C[C@H](CO)N1C[C@H](C)[C@H](CN(C)C)Oc2ncc(C#CC(C)(C)O)cc2C1=O,inactive: -3.08%
8,CC(=O)N(C)C[C@H]1Oc2cc(C#CCN(C)C)ccc2S(=O)(=O)N([C@H](C)CO)C[C@@H]1C,inconclusive: 105%
9,Cc1ccc(S(=O)(=O)Nc2ccc3c(c2)C(=O)N([C@@H](C)CO)C[C@@H](C)[C@H](CN(C)S(=O)(=O)c2ccc(C)cc2)OCCCC[C@H](C)O3)cc1,inconclusive: 95.8%
10,C[C@@H]1CCCCO[C@@H](CN(C)S(=O)(=O)c2cccs2)[C@H](C)CN([C@@H](C)CO)C(=O)c2cc(NC(=O)Cc3ccccc3)ccc2O1,inactive: -13%
11,C[C@H](CO)N1C[C@H](C)[C@@H](CN(C)Cc2ccncc2)OCCCC[C@H](C)Oc2ccc(NC(=O)Nc3ccc(F)cc3)cc2C1=O,inactive: 27.1%
12,C[C@H]1CN([C@@H](C)CO)C(=O)c2cc(NS(=O)(=O)c3ccc(F)cc3)ccc2O[C@@H]1CN(C)Cc1ccc(Cl)c(Cl)c1,inconclusive: 98%
13,COc1ccc(S(=O)(=O)N(C)C[C@@H]2Oc3cc(C#CC4CCCCC4)ccc3S(=O)(=O)N([C@H](C)CO)C[C@H]2C)cc1,inactive: 38.5%
14,C[C@H](CO)N1C[C@H](C)[C@H](CN(C)Cc2ccc(C(=O)O)cc2)Oc2c(NS(=O)(=O)c3cn(C)cn3)cccc2C1=O,inconclusive: 95.4%
15,C[C@H](CO)N1C[C@H](C)[C@H](CN(C)C(=O)Nc2ccc(C(F)(F)F)cc2)Oc2c(NC(=O)c3nc4ccccc4s3)cccc2C1=O,inconclusive: 104%
16,C[C@H]1CN([C@@H](C)CO)S(=O)(=O)c2ccc(C#CC3CC3)cc2O[C@H]1CN(C)Cc1ccccc1F,active: 106%
17,CCCC#Cc1ccc([C@H]2[C@@H](C#N)N(S(=O)(=O)c3cccc(F)c3)[C@@H]2CO)cc1,inactive: 90.3%
18,COc1cccc(S(=O)(=O)N[C@H]2CC[C@H](CCn3cc(-c4ccccc4OC)nn3)O[C@@H]2CO)c1,inconclusive: 124%
19,C[C@@H]1CN([C@@H](C)CO)C(=O)c2cccc(NC(=O)Nc3ccc(C(F)(F)F)cc3)c2O[C@H]1CN(C)Cc1ccc2c(c1)OCO2,inconclusive: 99.6%
